PubChem BioAssay AID485364 (National Center for Advancing Translational Sciences (NCATS), 2010)
In all, about 360,000 compounds went through this assay and about 11,000 (3.1%) were called active. The inconclusive results got no clear call from the source; some entries with a clear call stand among them for comparison. Calls follow the shape of the dose curve; as a rule, active = well fitted inhibition curve with a large enough effect; inconclusive = small, poorly fitted or top-dose-only effect; inactive = no such curve, though single readings can be large or run the other way. No potency is given beside an inconclusive call; the fits are too rough.

The compounds below were run against Schistosoma mansoni thioredoxin glutathione reductase (TGR) (UniProt Q962Y6) (assay: qHTS Assay for the Inhibitors of Schistosoma Mansoni Peroxiredoxins). Details: purified TGR, DTNB reduction, TNB absorbance 405 nm; series mostly up to 114 µM.
How it was run: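 Kinetic colorimetric format: TGR-catalysed, NADPH-driven DTNB reduction monitored via TNB absorbance. Enzyme dispensed at 20 nM; compound exposure 15 min at room temperature before reaction start.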
Also: nearly all actives have a fitted effect of over 60% in size.
Potency is read from the fitted curve at half-maximal effect; tags tell the direction and shape of the fitted curve.

| Compound | Potency |
| --- | --- |
| Cc1cc(C)c(N2CCN(S(=O)(=O)N3CCCCCC3)CC2)c(C)c1 | inconclusive [inhibitor, partial curve] |
| O=C(c1nc2ccccn2c1CNCCCn1ncc2ccccc21)N1CCCC1 | inconclusive [inhibitor, partial curve] |
| CCOc1ccc(NC(=O)CN(C)C(=O)CCc2ccccc2Cl)cc1OCC | inconclusive [inhibitor, full curve, poor fit] |
| CN(c1ccccc1)S(=O)(=O)c1ccc(NC(=S)NC(=O)c2ccccc2)cc1 | inconclusive [inhibitor, full curve, poor fit] |
| COC(=O)/C=C1\OC(c2ccccc2)=CC1=O | inconclusive [inhibitor, full curve] |
| CN(CCC#N)C(=O)CSc1nnc(-c2c[nH]c3ccccc23)o1 | inconclusive [inhibitor, single point] |
| COc1ccc(C(=O)[C@H]2[C@H]3C(=O)N(c4ccc(C)cc4)C(=O)[C@H]3C3C=CC=NN32)cc1 (stereo not given in full) | active: 39.8 µM |
| O=C(CCC(=O)Nc1ccc(Cl)cc1Cl)N/N=C/c1ccc([N+](=O)[O-])o1 | inconclusive [inhibitor, full curve] |
| O=C(COC(=O)c1ccc2ncsc2c1)NCc1cccc(Cl)c1 | inactive |
| CCOC(=O)C1=C(C)NC(=O)NC1C (stereo not given) | inactive |
| O=C(CSc1nc2c(sc3ccccc32)c(=O)n1-c1ccccc1)NCc1ccco1 | inconclusive [inhibitor, partial curve] |
| Cc1ccc(Cn2ccnc2C(=O)Nc2ccccc2)cc1 | inactive |
| Cc1cc(C(=O)COC(=O)c2cccn2C)c(C)n1Cc1ccco1 | inconclusive [inhibitor, partial curve] |
| COc1ccc(OCC(=O)Nc2nnc(S(=O)(=O)N3CCCCCC3)s2)cc1 | inconclusive [inhibitor, partial curve] |
| Cc1sc(NC(=O)C2=COCCO2)c(C#N)c1C | inconclusive [inhibitor, single point] |
| CCN(CC)c1ccc2c(Cl)c(Br)c(=O)oc2c1 | inconclusive [inhibitor, partial curve] |
| Cc1cc(C(=O)N/N=C2\CC(=O)CC(C)(C)C2)c(C)n1-c1ccc(F)cc1 | inconclusive [inhibitor, partial curve] |
| CC1=C(C#N)C(=O)N(C2CCS(=O)(=O)C2)C(=O)/C1=C\c1ccc(C)o1 (stereo not given) | active: 15.8 µM |
| COc1cc2c(cc1OC)C(c1ccccc1)NC(C)(C)C2 (stereo not given) | inconclusive [inhibitor, partial curve] |
| CCCCNC(=O)CCCN1C(=O)c2cccnc2Sc2ccccc21 | inactive |
| CCN1CCN(c2cc(C)c3cc(NC(=S)NCc4cccs4)ccc3n2)CC1 | inconclusive [inhibitor, single point] |
| COc1ccc(-c2nc3n(n2)C(=O)CC(c2ccco2)S3)cc1 (stereo not given) | active: 17.8 µM |
| COc1ccccc1-c1nc(S(=O)(=O)c2ccc(Cl)cc2)c(N2CCCCCC2)o1 | inconclusive [inhibitor, partial curve] |
| OCC1(CC2CCCCO2)CCN(Cc2ccccc2-c2ccco2)CC1 (stereo not given) | inconclusive [inhibitor, partial curve] |

| Compound | Potency |
| --- | --- |
| COc1ccccc1C(=O)Nc1ccc2c(c1)nc1n2CCN(Cc2ccccc2)C1 | inconclusive [inhibitor, partial curve] |
| CC(=O)Nc1c2c(nn1-c1ccccc1C)CS(=O)C2 (stereo not given) | active: 50.1 µM |
| C=CCn1c(C)cc(C2=NNC(=NCc3ccccc3)SC2)c1C | inactive |
| CCc1ccccc1NC(=O)C1=CC(c2ccc(OC)c(OC)c2)=NS(=O)(=O)N1C | inactive |
| CCOC(=O)c1c(C)oc2c1cc(NS(=O)(=O)c1ccc(C(=O)O)cc1)c1ccccc12 | active: 28.2 µM |
| Nc1cc(OC(=O)c2ccccc2Br)nn1S(=O)(=O)c1ccccc1 | inconclusive [inhibitor, full curve] |
| C(#CCN1CCOCC1)COC/C=C/c1ccccc1 | inconclusive [inhibitor, partial curve] |
| CCN(CC)CC(=O)c1c[nH]c2ccc(OC)cc12 | inconclusive [inhibitor, single point] |
| Cn1c(=O)c(C(=O)COC(=O)c2cc(-c3ccco3)nc3ccccc23)c(N)n(Cc2ccccc2)c1=O | active: 3.16 µM |
| COc1ccc(C)cc1-n1c(C)cc(C=O)c1C | inactive |
| COc1ccc(CNC(=O)CCn2nc(C)c3c(C)n(-c4ccccc4)nc3c2=O)cc1OC | inactive |
| Oc1c(Br)cc(/C=N/NC(=S)NCc2ccco2)cc1Br | inconclusive [inhibitor, full curve, poor fit] |
| O=Cc1c(NCc2ccco2)nc2ccccn2c1=O | inconclusive [inhibitor, partial curve] |
| Cc1noc(NS(=O)(=O)c2ccc(N/C=C\C(=O)c3ccncc3)cc2)c1C | inactive |
| CCC1=NC(c2ccccc2OC)N(O)C1(C)C (stereo not given) | inconclusive [inhibitor, single point] |
| Cn1c(SCC(=O)NC(C)(C)C)nnc1-c1cnccn1 | inconclusive [inhibitor, full curve, poor fit] |
| COc1cc2c(cc1OC)CN(Cc1cc(=O)n3cc(C)ccc3n1)CC2 | inconclusive [inhibitor, single point] |
| CN(C)CC1CSCCC1(O)c1ccccc1Cl (stereo not given) | inconclusive [inhibitor, partial curve] |
| Cn1c(O)c(C=NCCN2CCN(C(=O)c3ccccc3)CC2)c(=O)n(C)c1=O | inconclusive [inhibitor, partial curve] |
| Nc1cc(C(F)(F)F)ccc1NCCc1ccccn1 | inconclusive [inhibitor, partial curve] |
| Cc1ccc(S(=O)(=O)Nc2nc(C)c(NC(=O)Nc3ccc(Cl)cc3Cl)s2)cc1 | inconclusive [inhibitor, partial curve] |
| COc1ccc(S(=O)(=O)c2cn(C)c3cc(N4CCCCC4)c(F)cc3c2=O)cc1 | inconclusive [inhibitor, single point] |
| CCCSc1ccc([C@@H]2[C@H]3C(=O)N(CC)C(=O)[C@H]3[C@]3(C(=O)OC)CCCCN23)cc1OC | inconclusive [inhibitor, partial curve] |
| Cc1ccc(CNC(=O)c2ccc(CS(=O)Cc3ccccc3Cl)o2)cc1 (stereo not given) | active: 35.5 µM |

| Compound | Potency |
| --- | --- |
| Cn1c(SCC(=O)NC2CCCC2)nc2cccnc21 | inconclusive [inhibitor, full curve, poor fit] |
| COc1ccc(N(CC(=O)NCCC2=CCCCC2)S(C)(=O)=O)cc1 | inactive |
| COc1ccc(CCN(C)C2CCCN(S(=O)(=O)C(C)C)C2)cc1OC (stereo not given) | inconclusive [inhibitor, partial curve] |
| CCc1cccc2c(-c3ccccc3)nc(SCC(=O)Nc3ccccc3)nc12 | inactive |
| C=CCNC(=O)c1cn(CC)c2cc(N3CCN(C(=O)c4ccco4)CC3)c(F)cc2c1=O | inconclusive [inhibitor, full curve, poor fit] |
| COc1ccc(C2C(C#N)=C(N)OC3=C2C(=O)CCC3)c(OC)c1OC (stereo not given) | inconclusive [inhibitor, partial curve] |
| Cc1ccc(NC(=O)Nc2nnc(N(C)Cc3ccccc3)s2)cc1 | inactive |
| O=[N+]([O-])c1cc([N+](=O)[O-])c(Oc2cc(Cl)ccc2Cl)cc1NC1CCCCCCC1 | inconclusive [inhibitor, partial curve] |
| CN(C)Cc1cc(CN(C)C)c(O)c(CCc2ccccc2)n1 | inconclusive [inhibitor, partial curve] |
| COc1ccccc1NC(=O)c1c(NCc2sccc2C)sc2c1CCCCC2 | active: 11.2 µM |
| CN(NC(=O)c1c(Cl)cccc1Cl)c1cccc(Cl)n1 | inconclusive [inhibitor, single point] |
| COc1ccccc1Nc1ccc2nonc2c1[N+](=O)[O-] | inconclusive [inhibitor, full curve, poor fit] |
| C#CCOCCOCCOCCNc1nc(N2CCN(C(=O)[C@H](CCC(=O)O)n3cc(C(N)CO)nn3)CC2)nc(N2CCN(C(=O)[C@H](CCC(=O)O)n3cc(C(N)CO)nn3)CC2)n1 (stereo not given in full) | inconclusive [inhibitor, full curve, poor fit] |
| CN(C)CCCN(C(=O)CCSc1ccccc1)c1nc2cc3c(cc2s1)OCO3 | inconclusive [inhibitor, partial curve] |
| CCN1CCN(C(c2cccnc2)c2c(NC(=O)c3ccco3)sc(C)c2C)CC1 (stereo not given) | active: 20 µM |
| CC1(C)CC(=O)C(Sc2ccccc2)=C(O)C1 | active: 10 µM |
| CN1CCC(N(C)S(=O)(=O)c2ccc(NC(=O)COc3cccc(Cl)c3)cc2)CC1 | inactive |
| NC1=NC(=O)/C(=C\c2ccc(-c3ccc(Cl)cc3)o2)S1 | inactive |
| Cc1nn(C(=O)c2cc3sccc3[nH]2)c(C)c1C | inactive |
| Nc1nc2c(Cl)ccc(Cl)c2s1 | inactive |
| CCOC(=O)C1=C(CSc2nc(C)ccc2C#N)OC(N)=C(C#N)C1c1cccc(OC)c1OC (stereo not given) | active: 12.6 µM |
| CN(C)c1ccc(NC(=O)c2cccc(N3C(=O)C4C5C=CC(C5)C4C3=O)c2)cc1 (stereo not given) | inconclusive [inhibitor, partial curve] |
